# In the supplement of paper PMC3334620:
# In all, about 33,000 sequences were measured (“E-score (-0.5 to 0.5)”: median about -0.04, highest 2% from about 0.36 on). The list shows a part of the results.
# Biological target: T1, Hmlalpha2 (UniProt P0CY09)
# T1 sequence: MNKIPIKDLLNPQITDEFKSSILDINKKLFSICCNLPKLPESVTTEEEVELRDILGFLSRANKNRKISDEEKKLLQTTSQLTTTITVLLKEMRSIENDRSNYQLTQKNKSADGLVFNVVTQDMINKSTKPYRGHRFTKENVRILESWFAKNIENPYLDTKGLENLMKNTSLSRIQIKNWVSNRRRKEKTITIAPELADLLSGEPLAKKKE
# Assay: PBM E-score (8-mer binding enrichment) (E-score (-0.5 to 0.5)); higher = stronger / more preferred TF binding; most listed sequences are background and not binding sites
# Details: protein concentration: 200 nM; construct: GST-full length
# Method in brief: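 The E-score, a modified Wilcoxon-Mann-Whitney statistic, was computed by the Universal PBM Analysis Suite for every ungapped eight-base word pooled with its reverse complement. Scans behind it were normalised with masliner after bound GST-tagged yeast transcription factors were detected with fluorescent anti-GST. The proteins, at about 100-200 nM, had been applied to universal all-10-mer Agilent arrays made double-stranded by primer extension.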
row,Sequence,PBM E-score
1,TGACTCAA,0.0928
2,ATCCAAAT,0.175
3,ATTCAAGA,0.0843
4,GACGAACA,0.168
5,CAAAAGGA,0.0149
6,CCAGGCCG,-0.0128
7,AGAGAGCT,-0.282
8,CGCACATA,-0.0967
9,AGTTGGGG,-0.255
10,GTCCTCAC,-0.183
11,AACGGCTA,0.0673
12,ATAGGCCC,-0.3
13,AAGCAATA,0.0227
14,AAGTACAC,0.359
15,CTCGTCTA,-0.0113
16,GGCAGAAA,0.0971
17,CGCTAGTC,-0.259
18,ATGGAGTA,-0.0022
19,CGTTGTAC,0.278
20,AGGAGAAC,-0.119
21,ATCCAGCA,-0.0498
22,CCGCATAC,0.0261
23,GCGTATAC,0.371
24,GGTCAGCA,-0.0791
25,ATCCCATG,0.0147

row,Sequence,PBM E-score
1,ATGTGCTC,0.159
2,GACGCGGA,0.0365
3,CAACGTCG,0.157
4,CTCAAGGC,-0.12
5,ATACACTC,0.185
6,TAAGCACA,0.0914
7,GTGAGGGA,-0.233
8,CGGGTCCC,-0.317
9,GTCCTCAA,0.0177
10,AATTCTGA,0.0269
11,GGTTTGGA,-0.00811
12,CATATTAA,0.264
13,ACCAAGCA,-0.0294
14,ACAGCCGG,-0.073
15,ACAGCACC,-0.177
16,ACCGCCTA,-0.116
17,AGTTATGC,-0.0758
18,CCATTTTC,-0.0309
19,AAGCTCGA,0.0333
20,ACTGTTAC,0.00767
21,ATGTCTGA,0.0994
22,CAGTGAAA,-0.0586
23,ATGTCGTG,0.275
24,AGTTATAA,0.172
25,CTAATTCA,0.157

row,Sequence,PBM E-score
1,CGTACAAG,0.149
2,CGCATGTA,0.422
3,CGAATCCG,0.0414
4,CAGATATA,0.118
5,CACGCTCC,0.0503
6,ATTCGCGA,0.0435
7,CCCCCCCG,-0.385
8,AAAAGCCT,-0.154
9,ATAGTCAT,-0.0877
10,ATTCAACA,0.352
11,AGCCTTTC,-0.3
12,GAAGTCAA,-0.176
13,CCTTTAAC,0.279
14,AATCCTTA,-0.0251
15,ATACACTA,0.149
16,AGCCTCCC,-0.306
17,GTGTATAA,0.391
18,GCCCTCGC,-0.2
19,ATGTGGCG,-0.046
20,CCCGGGCC,-0.402
21,AATAGGGT,-0.059
22,CCGACGCC,0.0274
23,CACACTCA,0.135
24,CCGACTGA,-0.188
25,CCTGATTA,0.0825

row,Sequence,PBM E-score
1,AGATCGGA,-0.0522
2,AATTGTCC,-0.113
3,ACAGTACA,0.246
4,ACACAAAG,0.236
5,TCGAGCGA,-0.0571
6,CAAGTATG,0.109
7,CCGCACAC,-0.159
8,CAAATCAA,0.191
9,GTAGTTTA,0.301
10,CCTTTTTC,-0.111
11,GAATAGCA,-0.0136
12,AGACAGTG,0.00269
13,AGCACAGA,0.0774
14,GAAATCTA,-0.0263
15,AGACTTTA,-0.0845
16,AGGGAATG,-0.252
17,AGAATTCT,0.136
18,CCTGTCGC,-0.136
19,ATGTCTGG,0.00831
20,CAAGGACG,-0.139
21,ACCTAACA,0.0957
22,GCTGCACA,0.0338
23,ACTTGAGG,-0.203
24,ACCCCGTA,-0.0995
25,AAAAAAAC,0.0774

row,Sequence,PBM E-score
1,GAAACGAC,0.0452
2,CCCCTGCG,-0.195
3,GACTGTGC,-0.0787
4,CCGACCCA,-0.155
5,CGCCGGCA,-0.235
6,ACGGGCCA,-0.115
7,CAAAGGCC,-0.284
8,ACTGAACG,-0.0518
9,GTGACAGA,0.176
10,AACAGTAC,0.174
11,CTTGAGGC,-0.122
12,AAGTACGC,0.0863
13,TTATGCAA,0.11
14,ATTGTACA,0.403
15,ACGCTGGC,-0.0793
16,TAGATTGA,0.123
17,ACTAAGCC,-0.195
18,CCATATCG,-0.0849
19,CCTTATAG,0.00852
20,ACCCTTCA,0.00911
21,TCTCCCCA,-0.301
22,TAAGGGTA,-0.0432
23,GGCCGGTA,-0.0877
24,ATGCCGGA,-0.058
25,CAATAACC,0.0425

row,Sequence,PBM E-score
1,GAAACAGA,0.102
2,TACCCACA,-0.015
3,CTGCCGGC,-0.224
4,GTGGAACA,0.0765
5,GGGGTCAC,-0.312
6,CAAGCGGG,-0.18
7,AACTACTT,0.126
8,AGAAATTA,0.194
9,CAACGAAC,0.0552
10,AGAGGAGA,-0.237
11,CACAGGTA,0.134
12,CTACCTAC,0.176
13,CACCTTGG,-0.108
14,CTGCCGGA,-0.269
15,ACGTGGGC,0.0276
16,GCAGGCTA,-0.277
17,ATTTCCGG,-0.251
18,ATCTTCAG,-0.0793
19,GTGTGGCA,-0.171
20,AAATTGGT,0.0284
21,ATCTGTCA,-0.018
22,AACCGAAT,0.101
23,GCAAGTAA,0.29
24,CTCGATTC,-0.00369
25,ATTACGCC,0.187

row,Sequence,PBM E-score
1,ATGGCTTC,-0.0107
2,ACTGAGAC,-0.0128
3,CTGCGAGC,-0.211
4,TCGGTTAA,0.0804
5,CGGGTGGA,-0.0165
6,ACGCCGAC,0.0712
7,AAATATCC,0.0945
8,ATGCCGAG,0.0282
9,CCGGCTCA,-0.129
10,ATACCTTC,-0.0798
11,TGGTTACA,0.258
12,ACAGACTA,0.0286
13,ACCAGAAG,0.0325
14,ACCTTCAG,-0.00682
15,GTAAATTA,0.303
16,CAGGCCGC,-0.201
17,AAGGCGCG,0.0201
18,ATTCCAAT,0.119
19,ATGCAATC,0.183
20,CGTATGAA,0.185
21,ATGGACTA,-0.0489
22,AAACCCGC,-0.114
